Experimental data published in PubChem BioAssay AID488969 (Vanderbilt High Throughput Screening Facility, 2010).
The full ranking holds about 110,000 compounds; the median of “z-score” is about -0.1, and the highest 2% start at about 2. The list shows a part of the results.

Biological target: Metabotropic glutamate receptor 8 (Rattus norvegicus) (UniProt P70579)
Test: rat mGluR8 modulators via GIRK flux, primary screen, cell-based, thallium flux, HTS (AID 488969)
Conditions: HEK293 rat mGluR8, GIRK (G protein-gated inwardly rectifying potassium channel) thallium flux, FluoZin2; at 10 µM; stronger effect = higher value; submaximal glutamate (EC20) added with thallium

Sequence of UniProt P70579 (P70579 whole entry, looked up): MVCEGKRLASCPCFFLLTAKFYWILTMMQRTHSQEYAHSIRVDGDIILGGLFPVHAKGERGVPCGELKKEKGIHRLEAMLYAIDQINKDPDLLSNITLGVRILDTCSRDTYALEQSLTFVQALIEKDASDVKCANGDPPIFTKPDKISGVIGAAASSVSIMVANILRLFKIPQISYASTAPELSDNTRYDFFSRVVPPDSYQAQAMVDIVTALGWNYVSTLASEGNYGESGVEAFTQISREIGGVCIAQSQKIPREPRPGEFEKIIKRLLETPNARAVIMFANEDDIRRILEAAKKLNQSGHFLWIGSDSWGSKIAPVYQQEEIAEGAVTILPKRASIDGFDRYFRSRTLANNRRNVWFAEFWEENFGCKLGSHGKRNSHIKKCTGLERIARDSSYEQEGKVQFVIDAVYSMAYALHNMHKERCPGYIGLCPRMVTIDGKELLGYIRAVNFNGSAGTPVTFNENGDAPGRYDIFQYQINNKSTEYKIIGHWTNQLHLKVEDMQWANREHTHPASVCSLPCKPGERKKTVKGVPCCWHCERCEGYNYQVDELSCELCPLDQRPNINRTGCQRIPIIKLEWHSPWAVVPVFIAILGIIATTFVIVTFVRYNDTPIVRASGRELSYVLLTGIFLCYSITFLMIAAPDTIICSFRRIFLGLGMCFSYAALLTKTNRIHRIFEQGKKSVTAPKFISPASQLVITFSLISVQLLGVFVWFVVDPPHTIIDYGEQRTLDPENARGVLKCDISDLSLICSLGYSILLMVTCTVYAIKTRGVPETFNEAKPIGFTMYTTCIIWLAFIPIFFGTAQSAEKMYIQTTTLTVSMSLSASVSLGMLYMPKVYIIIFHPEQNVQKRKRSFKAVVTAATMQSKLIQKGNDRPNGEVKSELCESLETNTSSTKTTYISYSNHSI

| Structure (SMILES) | z-score |
| --- | --- |
| COC(=O)c1ccc(Oc2nc(Nc3ccccc3)nc(N(C)C)n2)cc1 | -0.223 |
| O=C1Nc2ccc(S(=O)(=O)N3CCCC3C(=O)O)c3cccc1c23 (centres undefined) | -0.291 |
| CC(=O)c1ccc(N(C)C)c2c(N(C)C)cccc12 | 1.27 |
| COc1ccc(Cl)cc1NC(=O)COC(=O)/C=C/c1c(C)nn(C2CCS(=O)(=O)C2)c1Cl (centres undefined) | -0.324 |
| Cc1ccccc1OCCNC(=O)/C=C/c1ccc([N+](=O)[O-])cc1 | -0.354 |
| Cc1cc(C)n(C2CCCCC2OC(=O)c2ccccc2F)n1 (centres undefined) | -0.148 |
| O=C(CC1SC(=Nc2ccccc2)N(CCc2ccccn2)C1=O)Nc1ccc(F)cc1 (centres undefined) | -0.0441 |
| COC(=O)c1ccc(NS(=O)(=O)c2ccc3c(c2)oc(=O)n3C)cc1 | -0.233 |
| CCc1ccc(NC(=O)CSc2nnc(CC)c(CC)n2)cc1 | -0.074 |
| COC(=O)C1=C(C)N(CCc2ccc(OC)c(OC)c2)C(=O)/C1=C\N(C)C | -0.171 |
| O=C(O)CN1C(=O)SC(Nc2ccccc2C(=O)O)C1=O (centres undefined) | -0.0946 |
| CCOc1ccccc1NC(=S)NC(=O)CCCOc1ccc(Cl)cc1Cl | -0.0571 |
| C=C(C)c1cccc(C(C)(C)NC(=O)NCc2ccc(OC)cc2)c1 | -0.252 |
| CCCCN1C2CCCC1CC(NC(=O)C1CCCCC1)C2 (centres undefined) | -0.0601 |
| COc1ccc(-n2c(SCC(=O)N3CCOCC3)nc(O)c(Cc3ccccc3)c2=O)cc1 | -0.108 |
| O=[N+]([O-])c1ccc(Nc2ccccc2)nc1 | -0.105 |
| C=CCn1c(SCc2csc(C)n2)nc2sc3c(c2c1=O)CCCC3 | 0.143 |
| Cc1nn(CCOc2ccccc2)c(=O)n1-c1cccc(F)c1 | -0.0112 |
| CCN(CC)S(=O)(=O)c1cccc(-c2nnc(SCC(=O)NC3CCCCCCC3)n2N)c1 | -0.924 |
| COc1cc(/C=C/c2ccc3cccc(OC)c3n2)c(OC(C)=O)c([N+](=O)[O-])c1 | -0.561 |
| CCn1c(SCC(=O)Nc2ccc(N3CCOCC3)cc2)nnc1-c1ccc(OC)cc1 | -0.137 |
| Cc1c(Cc2ccccc2)sc(/N=C/c2ccc3ccccc3c2)c1C(N)=O | 0.0447 |
| COc1ccc(Cl)cc1C(=O)CSc1nnnn1C1CCCCC1 | -0.333 |
| CSc1nc2nc(C)cc(-c3ccccc3)n2n1 | 0.168 |
| Cc1[nH]nc(N=CC2=C(O)CC(c3ccco3)CC2=O)c1-c1ccc(Cl)cc1 (centres undefined) | -0.117 |
| O=C(N/N=C/C1CC2CCC1C2)c1ccc2c(c1)OCO2 (centres undefined) | -0.285 |
| CC(C)(C)n1nc2c(c1NC(=O)COc1ccc(Cl)cc1)CSC2 | -0.126 |
| CC(C)(C)c1cc(C(=O)NCC(=O)OCC(=O)c2cccc([N+](=O)[O-])c2)cc(C(C)(C)C)c1 | -0.129 |
| CCNC(=O)NC(=O)C(C)Sc1nc2ccccc2n1CC(C)C (centres undefined) | 0.122 |
